Data as given in the supplement of paper PMC3334620.
Whole data set: some 33,000 sequences, median “E-score (-0.5 to 0.5)” near -0.021, cut for the highest 2% near 0.32. The list shows a part of the results.

Molecular target: T1, Zap1 (UniProt P47043)
T1 sequence: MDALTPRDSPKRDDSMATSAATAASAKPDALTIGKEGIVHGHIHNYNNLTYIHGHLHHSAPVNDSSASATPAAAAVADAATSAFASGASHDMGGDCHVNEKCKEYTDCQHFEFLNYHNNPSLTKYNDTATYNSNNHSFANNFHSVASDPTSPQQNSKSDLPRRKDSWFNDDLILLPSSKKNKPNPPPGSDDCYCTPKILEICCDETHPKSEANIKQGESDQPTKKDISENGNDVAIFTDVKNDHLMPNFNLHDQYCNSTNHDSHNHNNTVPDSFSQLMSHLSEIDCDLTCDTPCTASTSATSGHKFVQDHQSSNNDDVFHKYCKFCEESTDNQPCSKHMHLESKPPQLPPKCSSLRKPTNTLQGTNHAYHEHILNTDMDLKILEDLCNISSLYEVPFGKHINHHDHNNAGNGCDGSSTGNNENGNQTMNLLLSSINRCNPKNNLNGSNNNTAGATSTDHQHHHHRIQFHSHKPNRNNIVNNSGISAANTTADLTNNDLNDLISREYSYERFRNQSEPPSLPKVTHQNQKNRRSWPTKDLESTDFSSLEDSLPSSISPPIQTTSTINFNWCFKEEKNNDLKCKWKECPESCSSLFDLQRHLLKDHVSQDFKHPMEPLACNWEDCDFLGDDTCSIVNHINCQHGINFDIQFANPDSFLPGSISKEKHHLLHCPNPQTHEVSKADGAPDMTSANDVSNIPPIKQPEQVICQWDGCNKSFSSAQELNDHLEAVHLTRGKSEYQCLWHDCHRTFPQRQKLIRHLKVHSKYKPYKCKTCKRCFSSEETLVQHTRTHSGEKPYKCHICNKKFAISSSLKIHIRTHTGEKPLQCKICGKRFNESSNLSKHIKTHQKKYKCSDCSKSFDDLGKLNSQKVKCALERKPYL
Assay: PBM E-score (8-mer binding enrichment) (E-score (-0.5 to 0.5)); higher = stronger / more preferred TF binding; most listed sequences are background and not binding sites
Settings: protein concentration: 200 nM; construct: GST-full length
Summary of the method: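 Detection of bound protein used fluorescent anti-GST, with scans normalised by masliner. The proteins were GST-tagged yeast transcription factors applied at about 100-200 nM to universal all-10-mer Agilent arrays made double-stranded by primer extension. Each ungapped eight-base word, pooled with its reverse complement, was scored with an E-score from the Universal PBM Analysis Suite.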

Sequence | PBM E-score
TATAGACA | 0.0837
GTATGAAA | 0.151
AGGCGTTC | -0.144
GGGGGTAA | -0.0883
AAGTTAGT | -0.0228
AAGTAACG | 0.052
GGGGGGGA | -0.422
ACAGGGTA | 0.366
TCACATGA | -0.0588
GAATACGA | 0.027
GGGGACAA | 0.196
AACTACTG | -0.00324
CACGAGTA | -0.122
ATAGACAA | 0.0955
AGTTGCGC | -0.215
ATGGATAG | -0.158
CCCCTGCC | -0.14
AACAGGGT | 0.348
CGATGCCC | -0.294
AATTGGAA | 0.0687
CGGTGCGA | -0.0965
ATTGGAGA | -0.0327
ACAACTCA | 0.0673
CCAGACGG | -0.0508
AGGCTATC | 0.00193

Sequence | PBM E-score
AATTCGAT | 0.103
ACGTGGGA | -0.153
GTACTCAA | 0.0145
AATCACCG | -0.0435
CCGCTATA | -0.172
TGCCGAAA | -0.00691
AATAGGAA | 0.0505
GTAGCCAA | -0.0673
CGCTGGCC | -0.161
CCAGAGAG | -0.123
CGACAGTC | -0.354
AGTATAAG | 0.0626
CGAGAGTA | 0.0923
AGCAGCTG | -0.112
AAACCGTT | 0.00477
GTAGGCGA | -0.231
CAGTGTGC | -0.324
ATAAGATA | 0.157
AGGATGGC | -0.149
CAGAGTGA | -0.234
ACACTCCG | -0.159
AACTCGAT | 0.103
CTCATTGA | -0.0437
AAGACCAC | 0.0451
CTACGGTC | -0.162

Sequence | PBM E-score
AAATCATT | 0.0365
CTCCATTC | -0.134
CACAGTAC | 0.148
CCCTTTTC | 0.0941
CTCGGGGC | -0.0665
AGAATCCC | 0.0252
CACAACAC | 0.152
CAGTCCGG | -0.108
ATTGCTCC | -0.156
GTATAGCA | -0.104
CCTTCCAA | -0.0682
TACACCTA | 0.11
CATAGGCG | -0.15
GGGCAAAA | 0.173
GCTAGAGC | -0.197
GAACGCTA | -0.334
GCAGGGAC | -0.0759
ACGGGCAT | -0.0999
CCGGTGCC | -0.212
AGGCTGTG | -0.114
ACCTAGCC | -0.193
AACCCGGA | 0.332
ATGCCATC | -0.0807
ACGCGGTA | 0.136
GTTCAGTA | 0.239

Sequence | PBM E-score
GCATATAC | -0.0818
CGTTATCC | -0.0732
AACAGACC | 0.12
CAACTCTG | -0.119
CTCGGATC | -0.015
CCTGACCG | 0.0354
AAAGATTT | -0.0088
CATTCGCC | -0.133
TCTTATAA | 0.162
AAAAGGGT | 0.386
TCGGATAA | 0.178
AGTCCCCA | 0.0159
ATCGCCGA | -0.121
CAGCGCTC | -0.246
TCACTCCA | -0.111
ATTAAAGC | 0.0816
CGCGTAAC | 0.0699
CGGTCAGA | 0.11
CTTCGCGA | 0.0205
TCAGGTAA | 0.0394
AAATGGAC | 0.15
AGCAGTTC | -0.00971
CGTTATAA | 0.247
TACGGGGA | -0.0365
ATCAGCCA | -0.259

Sequence | PBM E-score
AGGCCATC | -0.0217
AGACTGTG | -0.243
CAAAAAGG | 0.197
AGTTGTTC | 0.14
ATATCCGC | -0.00426
CTAATGTC | -0.098
GTACGGAA | 0.153
ATATCGGA | 0.0419
CAGCCTGG | -0.0772
TACCCGTA | 0.273
CTCCTACC | -0.0885
AAAGTCTT | -0.185
TTGAAAAA | 0.17
AGAGAAGA | -0.00894
CCCCCAGA | -0.324
ACTCTACT | -0.0105
ACGACGAA | -0.0692
CACCCAAC | -0.0206
ATTGCGTC | 0.0358
AACTTATG | 0.0243
CGTAATTC | -0.0754
ATAAGCTA | 0.124
CGCCAGTC | -0.214
ACTTGCAG | -0.223
CTTAACCC | 0.387

Sequence | PBM E-score
AGCCGGCC | -0.0497
ACCTACTC | -0.00283
CACGGTCA | 0.262
AAGTCAGA | -0.0953
AAGCTTGA | -0.0977
GCCCAAAC | 0.0979
AGTATGTC | -0.093
GAAATATC | 0.0294
AGGTAACT | 0.237
CCTCAAGA | -0.00944
ACCAACAA | 0.316
CCCTTTCC | -0.0587
AAAGAGAA | -0.168
TCAACGAA | 0.0314
AGCGAAAA | -0.0505
ATGGCCAG | 0.268
GTATGCCA | -0.0791
AACGCGGT | 0.159
CAATCTTA | -0.094
CTTGTTTA | 0.126
ACTTTCCC | -0.117
ACCAGCGG | 0.0819
ACCTTGCA | 0.219
CCGTGATC | 0.0852
CCCAAAAA | 0.247

Sequence | PBM E-score
TAATCGTA | 0.079
TCCTGAGA | -0.14
AGAGGATC | -0.158
AAGTAATA | 0.0823
AGTTCAAT | -0.149
CCAAGAAC | -0.0543
CCGCCTAC | 0.0299
ACCTAATG | 0.0059
GCACACAC | -0.1
GTCCACAA | 0.063
TTAGCTAA | -0.107
ACTACAAA | 0.135
ATTGCGTG | -0.0118
ACGATCCG | -0.0805
CGGTCCGC | -0.0387
ACCACAAG | 0.259
ATGTCGAG | -0.112
GGTCGAGA | 0.0285
GCAAGCTA | -0.0697
ATTAGATC | -0.0395
CACCTACA | 0.0158
AACTGACT | -0.135
